In the assay the test system is Clostridioides difficile clinical isolate growth, OD600, 24 h. The assay is described as follows: antibacterial activity against Clostridioides difficile – 10-point retest, dose response (AID 1259246).

Results filed as inconclusive are left out. A number of entries come with more than one value. The list is limited to them. There may be further records. Results that share an entry repeat one measurement (runs, samples, wells, individuals or studies). A tag in brackets gives the origin of a value. The letters are not those of the source and start again with each entry.

In the case of `C[C@@H]1CN([C@@H](C)CO)C(=O)c2cccc(NC(=O)Nc3ccc(C(F)(F)F)cc3)c2O[C@@H]1CN(C)CC1CCCCC1`, the IC50 is 6.18 µM [sample A] and 612 nM [sample B] and 6.08 µM [sample C].

As for `COc1ccc(CN(C)C[C@H]2Oc3c(NC(=O)Nc4ccc(C(F)(F)F)cc4)cccc3C(=O)N([C@@H](C)CO)C[C@H]2C)cc1`, the IC50 was 7.58 µM [sample A] and 238 nM [sample B] and 1.16 µM [sample C].

What is called IC50 is the concentration that gives 50% inhibition. Read a low IC50 as inhibition by little substance.

The record behind these values is PubChem BioAssay AID1259246 (Broad Institute, 2017).
